Molecules are shown by their SMILES. This is one part of the list. Many values rest on one well or one pass, so single values are uncertain.

The test system of this experiment is Candida albicans DPL-15. Description: growth (OD600) after compound treatment (apparently relative to screen median) (relative growth (fraction; screen median 1.02)); DPL-15 is a caspofungin-resistant clinical isolate; higher = more fungal growth (less antifungal activity). The conditions noted are these: 25 µM; RPMI 1640; 48 h; 30 °C.
As for `C[C@@H]1C2C(C(=O)NC3CCCC3)=C(c3ccccc3)NC2C(=O)C[C@H]1c1ccccc1` (stereo not given in full), the growth came out at 0.936.
On to `CC1=NCCN(C)C2=C1C(c1ccccc1)N(c1ccccc1)C2=O` (stereo not given), for which the growth came to 0.965.
For the compound `CC#CCCN1C(=O)N(C(C)=O)C(c2ccccc2)C(C(C)=O)=C1C` (stereo not given), the growth turned out to be 1.01.
In the case of `COC(=O)[C@]1([C@H]2CCC(=O)O2)CC(=O)c2c(O)ccc(Br)c2O1`, the growth stood at 0.92.
Under `COc1ccc(Cn2nc(C)cc2N)cc1` stands 1.27.
Then `Nc1ccc(CCN2CCc3cc4c(cc3C2)OCO4)cc1`, with 1.06; and `COc1cccc2oc(C(=O)O)cc(=O)c12`, with 1.12; and `COC(=O)[C@@H]1[C@@H](O)[C@@]2(O)c3c(OC)cc(OS(=O)(=O)c4ccc(C)cc4)cc3O[C@@]2(c2ccc(Br)cc2)[C@H]1c1ccccc1`, with 1.02.
Then `COc1cc(O)c(C(=O)[C@@H]2CC=C(C)C[C@H]2c2ccccc2)c(O)c1`, with 0.99; and `COC(=O)C1=C(C)N(Cc2ccccc2)C(=S)NC1c1ccc(F)cc1` (stereo not given), with 0.941; and `CC(=O)C1=C(C)N(Cc2ccc(F)cc2)C(=S)NC1c1ccccc1` (stereo not given), with 1.02.
For the compound `CC(C)c1c2c(nn1C)C(=O)N(c1ccccc1)C2c1cccc(C(F)(F)F)c1` (stereo not given), the growth is 1.14.
For `COc1ccc(C2NC(=S)NC(C)=C2C(C)=O)cc1` (stereo not given), the growth was determined as 0.986.
For `CC(C)Cc1c2c(nn1Cc1ccccc1)C(=O)NC2c1ccc(F)cc1` (stereo not given), the growth was 0.995.
In the case of `O=c1ccoc(CC23CCOC2Nc2ccccc23)c1O` (stereo not given), the growth stood at 1.44.
Then `O=C1C=C(c2ccccc2)CC1c1ccccc1` (stereo not given), with 0.946; and `C[C@@H]1/C=C\CC(=O)OCCCCCC(=O)N[C@@H]1c1ccccc1`, with 1.12.
For `COc1ccccc1Cn1nc(C(C)C)c2c1C(=O)NC2c1ccc(F)cc1` (stereo not given), the growth is 0.98.
Consider `COC(=O)C1=C[C@@H]([C@@H](C)[C@H](OC)c2ccccc2Br)[C@@H]2OCC[C@H]12`, for which the growth amounted to 1.07.
On to `CC(C)CCCC(C)(CCOS(=O)(=O)NC(C)(C)C)CCC(=O)OC(C)(C)C` (stereo not given), for which the growth turned out to be 0.996.
Consider `CC(C)Cn1nc(-c2ccccc2)cc1Nc1cc(O)cc(O)c1C(=O)N1Cc2cn[nH]c2C1`, for which the growth is 1.09.
Then `CC(C)Cc1n[nH]c2c1C(c1ccccc1Br)N(c1ccc(F)cc1)C2=O` (stereo not given), with 1.07.
With `CC(C)Cc1n[nH]c2c1C(c1ccccc1Cl)N(c1ccc(F)cc1)C2=O` (stereo not given), the growth stood at 1.33.
As for `C=CC[C@]12C[C@@]3(O[C@H](C(C)C)N=C3C[C@H](c3ccc(OC)cc3)[C@H]1C)N(Cc1ccncc1)C2=O`, the growth amounted to 1.02.
In the case of `CCC[C@@H](O)COc1cc2c(cc1C1(c3cc4c(cc3OC[C@H](O)CCC)OCO4)C(=O)Nc3cc(F)ccc31)OCO2`, the growth turned out to be 1.01.
For `C=CC[C@@]12C(=O)N(C)[C@@](O)(c3ccccc3)[C@@H]1[C@]1([C@H](COC)OC)c3ccccc3[C@H]2c2ccccc21`, the growth was determined as 1.24.
Under `CC(=O)OC[C@H]1O[C@H](c2cc(C)cc(C)c2)C=C[C@H]1OC(C)=O` stands 1.04; under `CC(C)[C@@H]1N=C2C[C@H](c3ccccc3)[C@@H](C)[C@@H]3C[C@@]2(O1)N(Cc1ccco1)C3=O`, 0.704.
Consider `CCOC(=O)CN1C(=O)N[C@@H](c2cccc(C(F)(F)F)c2)[C@H](C(C)=O)[C@H]1C`, for which the growth amounted to 0.954.
Consider `COC(=O)C1=C(C)N(CCc2cccs2)C(=S)NC1c1ccc(C)cc1` (stereo not given), for which the growth worked out at 0.98.
For the compound `CC(=O)C1=C(C)NC(=O)NC1c1ccc(F)cc1` (stereo not given), the growth was determined as 1.11.
On to `COc1ccc(Cn2nc(C(C)C)cc2N)cc1`, for which the growth came out at 1.25.
Then `CC(=O)OC[C@H]1O[C@H](C#Cc2cccc(Cl)c2)C=C[C@@H]1OC(C)=O`, with 1.09; and `COc1ccc(CCN2C[C@@]3(O)CC[C@@H](O)[C@@H](OC)[C@@H]3[C@@]2(C)[C@H](O)CC=C(C)C)cc1OC`, with 1.21.
Regarding `Cn1nccc1Nc1cc(O)cc(O)c1C(=O)N1CCC(F)(F)C1`, the growth turned out to be 1.04.
With `CC(C)(C)C[C@@H](O)COc1cc2c(cc1C1(c3cc4c(cc3OC[C@H](O)CC(C)(C)C)OCO4)C(=O)Nc3cc(Br)ccc31)OCO2`, the growth was found to be 0.948.
In the case of `COC(=O)C1=C(C)N(Cc2cccc(C(F)(F)F)c2)C(NCc2cccc(C(F)(F)F)c2)=NC1c1cccc(Cl)c1` (stereo not given), the growth turned out to be 1.13.
As to `CCC(=O)C[C@@H](NC(=O)OC)c1ccc(F)cc1`, the growth turned out to be 0.954.
In the case of `O=C1CC2(CCCCC2)CNC(=O)c2cccc(c2)-c2cc(n[nH]2)COCCOCCN1`, the growth came to 1.05.
As to `COC(=O)C1=C(C)N(C)C(NCc2ccc3c(c2)OCO3)=NC1c1ccc(Cl)cc1` (stereo not given), the growth stood at 0.915.
Regarding `COc1ccc(-c2cnc3c(-c4ccc(OC)nc4)cnn3c2N)cc1`, the growth amounted to 1.02.
On to `CC(C)(O)/C=C/C1=C[C@@H](O[Si](C)(C)C(C)(C)C)[C@@H]2O[C@@H]2C12OCCCO2`, for which the growth was found to be 1.03.
Turning to `CCN1C(=S)NC(c2ccc(OC)cc2)C(C(C)=O)=C1C` (stereo not given), the growth was determined as 0.992.
Take `C[C@@H]1/C=C/CC(=O)OCc2ccccc2CC(=O)N[C@@H]1c1cccc(Br)c1`: the growth worked out at 1.07.
In the case of `COC(=O)[C@H]1C(=O)[C@@]2(NN(C)C)c3c(OC)cc(OC)cc3O[C@@]2(c2ccc(OC)cc2)[C@@H]1c1ccccc1`, the growth amounted to 1.42.
On to `C[C@H]1C=C(Br)[C@]2(CCCO2)[C@@H]1c1ccccc1`, for which the growth was 1.19.
Turning to `O=C1N[C@@H](c2ccccc2)COCc2cc([nH]n2)-c2ccccc2-c2cccc(c2)C(=O)N2C[C@H](O)C[C@@H]12`, the growth is 0.821.
Under `CC(C)Cc1nn(Cc2ccccc2)c2c1C(c1ccc3c(c1)OCO3)NC2=O` (stereo not given) stands 1.16.
`COC(=O)C/C=C/[C@H](C)[C@@H](NC(=O)[C@@H](Cc1ccccc1)NC(=O)OC(C)(C)C)c1ccccc1`: the growth came to 0.984.
With `COc1cc2c(cc1C1(c3cc4c(cc3OC)OCO4)C(=O)Nc3cc(F)ccc31)OCO2`, the growth was found to be 1.14.
For `CC(C)CC1=NCCNC2=C1C(c1ccc(F)cc1)N(c1ccccc1)C2=O` (stereo not given), the growth worked out at 0.942.
Regarding `CC(=O)OC[C@H]1O[C@H](c2ccc(-c3ccccc3)cc2)C=C[C@@H]1OC(C)=O`, the growth is 0.867.
Under `CO[C@H]1CCN(C(=O)c2c(O)cc(O)cc2NC2Cc3ccccc3C2)C1` stands 1.09; under `O=C(O)[C@H](Cc1ccccc1)n1nnc(-c2ccccc2)c1C#Cc1ccccc1`, 1.47.
For `CC1=NCCNC2=C1C(c1ccc3c(c1)OCO3)N(Cc1ccccc1)C2=O` (stereo not given), the growth is 1.03.
On to `Cc1ccc(C2NC(=O)c3c2c(C)nn3-c2ccc(F)cc2)cc1` (stereo not given), for which the growth stood at 1.18.
For `COc1ccc(C[C@H]2COC(=O)[C@@H]2Cc2ccc(OC)c(OC)c2)cc1OC`, the growth stood at 0.951.
In the case of `COC(=O)c1[nH]c2ccccc2c1[C@]12CCN(C(=O)Cc3cc(F)cc(F)c3)[C@H]1Nc1ccccc12`, the growth came to 1.05.
Then `COc1ccc(/C=C/NC(=O)c2ccc(OC)cc2)cc1`, with 1.1; and `Cc1nn(-c2ccc(F)cc2)c2c1C(c1ccc(F)cc1)NC2=O` (stereo not given), with 1.01; and `CC1=NCCNC2=C1C(c1ccccc1)N(Cc1ccccc1)C2=O` (stereo not given), with 1.03.
Regarding `CN(Cc1ccccc1)C(=O)c1c(O)cc(O)cc1CC(=O)CC(C)(C)C`, the growth came out at 0.822.
Take `CCc1cc2c(nc1CC)CCCN2S(=O)(=O)c1cccs1`: the growth amounted to 0.87.
Regarding `C=CCN1C(=O)C2=C(C(C)=NCCN2)C1c1ccccc1` (stereo not given), the growth was found to be 0.941.
On to `C=CC1(CO)C=C(C)C2c3c(cc(O[Si](C(C)C)(C(C)C)C(C)C)cc3C(O[Si](C)(C)C(C)(C)C)[C@@H]2C)N1` (stereo not given in full), for which the growth came out at 0.938.
In the case of `COc1ccc(N2C(=O)c3[nH]nc(CC(C)C)c3C2c2cncs2)cc1` (stereo not given), the growth was 1.02.
`C=C(C)CCCN1C=C(C(=O)OCC)C(c2ccccc2)NC1=O` (stereo not given): the growth came out at 1.05.
Take `O=c1ccoc(CC23CCCCC2=Nc2ccc(Cl)cc23)c1O` (stereo not given): the growth is 0.75.
Take `COc1cc(C)c(I)c(O)c1C(C)=O`: the growth was 0.97.
Regarding `CC(C)OC1=CC(=O)C(C)(C)C(=O)C1(C)C`, the growth came to 1.14.
In the case of `COc1cc2c(c(OC)c1OC)[C@@]1(c3ccccc3)CCCCC[C@H]1[C@@H]2NC(=O)C(F)(F)F`, the growth came out at 1.17.
Then `CO[C@@H]1[C@H](O)CC[C@]2(O)CN(CCc3ccccn3)[C@](C)([C@H](O)CC=C(C)C)[C@@H]12`, with 1.18; and `O=C1CC2(CCCCC2)CNC(=O)c2cccc(c2)-c2cc(n[nH]2)CCCCCCN1`, with 0.956.
As for `COC(=O)C(CC(C)(C)CCOS(=O)(=O)NC(C)(C)C)N(C(=O)OC(C)(C)C)C(=O)OC(C)(C)C` (stereo not given), the growth is 1.04.
In the case of `Cc1cc(C)cc(-n2nc(C(C)C)c3c2C(=O)NC3c2ccc(F)cc2)c1` (stereo not given), the growth was 0.997.

These data come from the supplement of paper PMC10986608.
